Target: BiKE:E5C1
Test: BLI

Chain of BiKE:E5C1 (P08637 17-254): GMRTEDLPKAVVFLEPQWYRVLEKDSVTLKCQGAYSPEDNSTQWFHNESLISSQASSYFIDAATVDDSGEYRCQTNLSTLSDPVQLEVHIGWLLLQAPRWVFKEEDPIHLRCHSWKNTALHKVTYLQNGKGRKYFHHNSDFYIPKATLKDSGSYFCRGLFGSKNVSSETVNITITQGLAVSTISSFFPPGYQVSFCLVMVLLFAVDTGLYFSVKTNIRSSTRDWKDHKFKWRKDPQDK

Kd: 2.7 nM | koff: 0.00051 s⁻¹
B1: CD16a antigen (biotinylated CD16a, F176) (receptor)
chain: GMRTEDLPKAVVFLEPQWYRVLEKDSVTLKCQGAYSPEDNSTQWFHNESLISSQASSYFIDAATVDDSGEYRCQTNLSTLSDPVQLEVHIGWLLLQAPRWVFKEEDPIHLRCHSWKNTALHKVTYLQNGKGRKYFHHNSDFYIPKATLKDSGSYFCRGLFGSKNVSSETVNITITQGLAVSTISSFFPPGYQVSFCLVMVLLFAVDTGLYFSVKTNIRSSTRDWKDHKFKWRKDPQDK
modifications: biotin
